Source: the supplement of paper PMC12217912
The list shows a part of the results. Sequences were assembled here from the parent chain. Inactive controls read about 0.05.

B1: TEV protease; numbered along this chain (parent)
chain: MGESLFKGPRDYNPISSSICHLTNESDGHTTSLYGIGFGPFIITNKHLFRRNNGTLVVQSLHGVFKVKDTTTLQQHLVDGRDMIIIRMPKDFPPFPQKLKFREPQREERICLVTTNFQTKSMSSMVSDTSCTFPSGDGIFWKHWIQTKDGQCGSPLVSTRDGFIVGIHSASNFTNTNNYFTSVPKNFMELLTNQEAQQWVSGWRLNADSVLWGGHKVFMVKPEEPFQPVKEATQL

Variants of: B1
Test: raw area under fraction-flipped curve 0-4 h after induction (AUC4h, not background-subtracted), DNA-recorder readout of cleavage of the substrate (dimensionless); higher = more cleavage of the substrate by the protease variant
Settings: temperature: 34 °C; time window: 0-4 h after rhamnose induction
Procedure: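 In vivo DNA recorder in E. coli TOP10(DE3) ΔrhaA at 34 °C. Each TEVp single-site mutant (parent TEVp 0) is paired with a single-site variant of the 7-mer TEVs (canonical ENLYFQ|S). The substrate sits between flexible linkers in a Bxb1-sfGFP-TEVs-SsrA fusion, so cleavage stabilises Bxb1 and speeds flipping of a recombination array, read by NGS. The value is the raw area under the fraction-flipped curve over 0-4 h after rhamnose induction (AUC4h), with ≥20 reads per time point. It is not background-subtracted; inactive controls average about 0.047.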
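Note: Bxb1 expression induced with 0.2% (w/v) L-rhamnose at OD600 near 0.5, cultures sampled hourly, flipped fraction per protease–substrate barcode pair counted by paired-end Illumina sequencing.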

Row | Variant | area with substrate ENLYCQS | area with substrate ENLYDQS | area with substrate ENLYEQS | area with substrate ENLYGQS | area with substrate ENLYHQS | area with substrate ENLYLQS | area with substrate ENLYMQS | area with substrate ENLYNQS | area with substrate ENLYPQS | area with substrate ENLYQQS | area with substrate ENLYRQS | area with substrate ENLYSQS | area with substrate ENLYVQS | area with substrate ENLYWQS | area with substrate ENLYYQS | area with substrate ENLYIQS | area with substrate ENLYKQS | area with substrate ENLYTQS
1 | MGESLFKGPRDYNPISSSICHLTNESDGHTTSLYGIGFGPFIITNKHLFRRNNGTLVVQSLHGVFKVKDTTTLQQHLVDGRDMIIIRMPKDFPPFPQKLKFREPQREERICEVTTNFQTKSMSSMVSDTSCTFPSGDGIFWKHWIQTKDGQCGSPLVSTRDGFIVGIHSASNFTNTNNYFTSVPKNFMELLTNQEAQQWVSGWRLNADSVLWGGHKVFMVKPEEPFQPVKEATQL [L112E] | 0.0617 | 0.0553 | 0.0537 | 0.0571 | 0.0613 | 0.0673 | 0.0406 | 0.059 | 0.0653 | 0.0423 | 0.0646 | 0.0566 | 0.0931 | 0.082 | 0.0649 | – | – | –
2 | MGESLFKGPRDYNPISSSICHLTNESDGHTTSLYGIGFGPFIITNKHLFRKNNGTLVVQSLHGVFKVKDTTTLQQHLVDGRDMIIIRMPKDFPPFPQKLKFREPQREERICLVTTNFQTKSMSSMVSDTSCTFPSGDGIFWKHWIQTKDGQCGSPLVSTRDGFIVGIHSASNFTNTNNYFTSVPKNFMELLTNQEAQQWVSGWRLNADSVLWGGHKVFMVKPEEPFQPVKEATQL [R51K] | 0.0777 | – | – | – | – | – | 0.0883 | – | – | – | – | – | 0.122 | 0.0805 | – | – | – | –
3 | MGESLFKGPRDYNPISSSICHLTNESDGHTTSLYGIGFGPFIITNKHLFRRNNGTLVVQSLHGVFKVKDTTTLQQHLVDGRDMIIIRMPKDFPPFPQKLKFREPQREERICLVTTNFQTKSMSSMVSDTSCTFPSGDGIFWKHWIQTKDGQCGSPLVSTRDGFIVGIHSASNFTNTNNYFTSVPKNFMELLTNQEAQQWVSHWRLNADSVLWGGHKVFMVKPEEPFQPVKEATQL [G202H] | 0.0737 | – | 0.0593 | 0.0685 | 0.0559 | 0.0601 | 0.062 | 0.0618 | – | 0.0557 | 0.06 | 0.0687 | 0.0657 | 0.0697 | 0.052 | 0.0752 | – | –
4 | MGESLFKGPRDYNPISSSICHLTNESDGHTTSLYGIGFGPFIITNKHLFRRNNGTLVVQSLHGVFKVKDTTTLQQHLVDGRDMIIIRMPKWFPPFPQKLKFREPQREERICLVTTNFQTKSMSSMVSDTSCTFPSGDGIFWKHWIQTKDGQCGSPLVSTRDGFIVGIHSASNFTNTNNYFTSVPKNFMELLTNQEAQQWVSGWRLNADSVLWGGHKVFMVKPEEPFQPVKEATQL [D91W] | 0.0865 | 0.0616 | 0.0673 | 0.0657 | – | – | 0.0819 | 0.0696 | 0.068 | – | 0.0641 | 0.0811 | 0.0798 | 0.0839 | 0.08 | – | 0.058 | –
5 | MGESLFKGPRDYNPISSSICHLTNESDGHTTSLYGIGFGPFIITNKHLFRRNNGTLVVQSLHGVFKVKDTTTLQQHLVDGRDMIIIRMPKDFPPFPQKLKFREPQREERICLVTTNFQTKSMSSMVSDTSCTFPSGDGIFWKHWIQTKDGQCGSPLVSTRDGFIVGIHSASNFTNTNNYFTSVPKNFMELLTNQEAQQWVAGWRLNADSVLWGGHKVFMVKPEEPFQPVKEATQL [S201A] | 0.0817 | 0.0665 | 0.0582 | 0.0642 | – | – | 0.0727 | – | 0.0614 | – | 0.0606 | 0.0648 | 0.0986 | 0.0788 | – | 0.102 | – | –
6 | MGESLFKGPRDYNPISSSICHLVNESDGHTTSLYGIGFGPFIITNKHLFRRNNGTLVVQSLHGVFKVKDTTTLQQHLVDGRDMIIIRMPKDFPPFPQKLKFREPQREERICLVTTNFQTKSMSSMVSDTSCTFPSGDGIFWKHWIQTKDGQCGSPLVSTRDGFIVGIHSASNFTNTNNYFTSVPKNFMELLTNQEAQQWVSGWRLNADSVLWGGHKVFMVKPEEPFQPVKEATQL [T23V] | 0.0681 | 0.0648 | 0.0561 | 0.0571 | 0.0799 | – | 0.0983 | 0.0793 | 0.0657 | – | – | 0.0698 | 0.14 | 0.082 | 0.068 | 0.144 | 0.0693 | 0.108
7 | MGESLFKGPRDYNPISSSICHLTNESDGHTTSLYGIGFGPFIITNKHLFRRNNGTLVVQSLHGVFKVKDTTTLQQHLVDGRDMIIIRMPKDFPPFPQKLKFREPQREERICLVTTNFQTKSMSSMVSDTSCTFPSGDGIFWPHWIQTKDGQCGSPLVSTRDGFIVGIHSASNFTNTNNYFTSVPKNFMELLTNQEAQQWVSGWRLNADSVLWGGHKVFMVKPEEPFQPVKEATQL [K142P] | 0.0656 | 0.0488 | 0.0598 | 0.0559 | 0.0569 | – | 0.0676 | – | 0.0817 | 0.0585 | 0.06 | 0.075 | – | – | – | 0.0732 | 0.0725 | 0.0653
8 | MGESLFKGPRDYNPISSSICHLTNESDGHTTSLYGIGFGPFIITNKHLFRRNNGTLVVQSLHGVFKVKDTTTLQQHLVDGRDMIIIRMPKDFPPFPQKLKFREPQREERICLVTTNFQTKSMSSMVSDTSCTFPSGDGIFCKHWIQTKDGQCGSPLVSTRDGFIVGIHSASNFTNTNNYFTSVPKNFMELLTNQEAQQWVSGWRLNADSVLWGGHKVFMVKPEEPFQPVKEATQL [W141C] | 0.0638 | 0.0739 | 0.0675 | 0.056 | 0.0609 | – | 0.0591 | 0.0588 | 0.0615 | – | 0.0539 | – | 0.0736 | 0.0436 | – | 0.0616 | 0.0315 | –
9 | MGESLFKGPRDYNPISSSICHLTNESDGHTTSLYGIGFGPFIITNKHLFRRNNGTLVVQSLHGVFKVKDTTTLQQHLVDGRDMIIIRMPKDFPPFPQKLKFREPQREERICLVTTNFQTKSMSSMVSDTSCTFPSGDGIFWKHWIQTKDGQCGSPLVSTRDGFIVGIHSASNFTNTNNYFTSVPKNFMELLTNQEEQQWVSGWRLNADSVLWGGHKVFMVKPEEPFQPVKEATQL [A196E] | 0.0954 | 0.0612 | 0.0973 | 0.0598 | 0.0747 | – | – | 0.0679 | 0.0597 | – | 0.0586 | 0.0534 | 0.101 | 0.0766 | – | – | 0.0704 | 0.0717
